US20250243260A1 (ALPINE IMMUNE SCIENCES, published 2025)

Target: CD28 on Jurkat/IL2-reporter cells (UniProt P10747 19-220, limits assumed)
Experiment: cell-based or functional assay

Fold Increase over WT at 50 nM: 1.12 fold
Rel. Luminescence Units (RLU) 2 nM: 2450 RLU
Rel. Luminescence Units (RLU) 10 nM: 2450 RLU
Rel. Luminescence Units (RLU) 50 nM: 2730 RLU
Rel. Luminescence Units (RLU) 250 nM: 3260 RLU
B1: CD80_231 variant CD80 IgV-Fc (V11W, T28Y, M47L) (Fc fusion)
chain: VIHVTKEVKEWATLSCGHNVSVEELAQYRIYWQKEKKMVLTMMSGDLNIWPEYKNRTIFDITNNLSIVILALRPSDEGTYECVVLKYEKDAFKREHLAEVTLSVKADGSGGGGS[omitted - human IgG4 Fc with S228P (EU numbers)]

Fold Increase over WT at 50 nM: 3.13 fold
Rel. Luminescence Units (RLU) 2 nM: 3330 RLU
Rel. Luminescence Units (RLU) 10 nM: 4960 RLU
Rel. Luminescence Units (RLU) 50 nM: 7640 RLU
Rel. Luminescence Units (RLU) 250 nM: 10500 RLU
B2: CD80_241 variant CD80 IgV-Fc (E10S, V11F, T28Y, M47L) (Fc fusion)
chain: B1 chain with E10S, W11F

Fold Increase over WT at 50 nM: 5.27 fold
Rel. Luminescence Units (RLU) 2 nM: 7510 RLU
Rel. Luminescence Units (RLU) 10 nM: 10500 RLU
Rel. Luminescence Units (RLU) 50 nM: 12800 RLU
Rel. Luminescence Units (RLU) 250 nM: 16000 RLU
B3: CD80_175 variant CD80 IgV-Fc (E10S, V11F, T28Y, M47L, T62S) (Fc fusion)
chain: B1 chain with E10S, W11F, T62S

Fold Increase over WT at 50 nM: 3.11 fold
Rel. Luminescence Units (RLU) 2 nM: 2330 RLU
Rel. Luminescence Units (RLU) 10 nM: 3520 RLU
Rel. Luminescence Units (RLU) 50 nM: 7590 RLU
Rel. Luminescence Units (RLU) 250 nM: 10700 RLU
B4: CD80_243 variant CD80 IgV-Fc (V11Y, M47L, A71G, Y87R) (Fc fusion)
chain: B1 chain with W11Y, Y28T, A71G, Y87R

Fold Increase over WT at 50 nM: 1.64 fold
Rel. Luminescence Units (RLU) 2 nM: 2430 RLU
Rel. Luminescence Units (RLU) 10 nM: 2540 RLU
Rel. Luminescence Units (RLU) 50 nM: 4010 RLU
Rel. Luminescence Units (RLU) 250 nM: 8020 RLU
B5: CD80_181 variant CD80 IgV-Fc (K9S, E10R, V11Y, M47L, A71G) (Fc fusion)
chain: B1 chain with K9S, E10R, W11Y, Y28T, A71G

Fold Increase over WT at 50 nM: 5.48 fold
Rel. Luminescence Units (RLU) 2 nM: 3790 RLU
Rel. Luminescence Units (RLU) 10 nM: 8250 RLU
Rel. Luminescence Units (RLU) 50 nM: 13400 RLU
Rel. Luminescence Units (RLU) 250 nM: 16600 RLU
B6: CD80_236 variant CD80 IgV-Fc (V11Y, T28Y, M47L, A71G) (Fc fusion)
chain: B1 chain with W11Y, A71G

Fold Increase over WT at 50 nM: 5.04 fold
Rel. Luminescence Units (RLU) 2 nM: 6240 RLU
Rel. Luminescence Units (RLU) 10 nM: 10400 RLU
Rel. Luminescence Units (RLU) 50 nM: 12300 RLU
Rel. Luminescence Units (RLU) 250 nM: 13600 RLU
B7: CD80_234 variant CD80 IgV-Fc (V11Y, T28Y, M47L, V68L) (Fc fusion)
chain: B1 chain with W11Y, V68L

Fold Increase over WT at 50 nM: 1.34 fold
Rel. Luminescence Units (RLU) 2 nM: 2250 RLU
Rel. Luminescence Units (RLU) 10 nM: 2510 RLU
Rel. Luminescence Units (RLU) 50 nM: 3270 RLU
Rel. Luminescence Units (RLU) 250 nM: 4890 RLU
B8: CD80_172 variant CD80 IgV-Fc (K9R, E10S, V11Y, M42L, F59M, V68M, L85E) (Fc fusion)
chain: B1 chain with K9R, E10S, W11Y, Y28T, M42L, L47M, F59M, V68M, L85E

Fold Increase over WT at 50 nM: 1.09 fold
Rel. Luminescence Units (RLU) 2 nM: 2950 RLU
Rel. Luminescence Units (RLU) 10 nM: 2620 RLU
Rel. Luminescence Units (RLU) 50 nM: 2660 RLU
Rel. Luminescence Units (RLU) 250 nM: 3250 RLU
B9: CD80_179 variant CD80 IgV-Fc (H18F, M42G, F59Y, V68N) (Fc fusion)
chain: B1 chain with W11V, H18F, Y28T, M42G, L47M, F59Y, V68N

Fold Increase over WT at 50 nM: 1.09 fold
Rel. Luminescence Units (RLU) 2 nM: 2260 RLU
Rel. Luminescence Units (RLU) 10 nM: 2660 RLU
Rel. Luminescence Units (RLU) 50 nM: 2650 RLU
Rel. Luminescence Units (RLU) 250 nM: 2520 RLU
B10: CD80_168 variant CD80 IgV-Fc (K9N, E10G, N63S, L85E) (Fc fusion)
chain: B1 chain with K9N, E10G, W11V, Y28T, L47M, N63S, L85E

Fold Increase over WT at 50 nM: 1.42 fold
Rel. Luminescence Units (RLU) 2 nM: 2840 RLU
Rel. Luminescence Units (RLU) 10 nM: 2940 RLU
Rel. Luminescence Units (RLU) 50 nM: 3450 RLU
Rel. Luminescence Units (RLU) 250 nM: 7300 RLU
B11: CD80_177 variant CD80 IgV-Fc (E10G, V11W, V22S, T28P, A71G, E81K, Y87R) (Fc fusion)
chain: B1 chain with E10G, V22S, Y28P, L47M, A71G, E81K, Y87R

Fold Increase over WT at 50 nM: 2.69 fold
Rel. Luminescence Units (RLU) 2 nM: 3100 RLU
Rel. Luminescence Units (RLU) 10 nM: 3460 RLU
Rel. Luminescence Units (RLU) 50 nM: 6560 RLU
Rel. Luminescence Units (RLU) 250 nM: 8800 RLU
B12: CD80_180 variant CD80 IgV-Fc (E10G, V11W, T28Y, M47L) (Fc fusion)
chain: B1 chain with E10G

Fold Increase over WT at 50 nM: 4.52 fold
Rel. Luminescence Units (RLU) 2 nM: 6540 RLU
Rel. Luminescence Units (RLU) 10 nM: 8450 RLU
Rel. Luminescence Units (RLU) 50 nM: 11000 RLU
Rel. Luminescence Units (RLU) 250 nM: 12400 RLU
B13: CD80_240 variant CD80 IgV-Fc (V11Y, T28Y, D46E, M47V, V68M) (Fc fusion)
chain: B1 chain with W11Y, D46E, L47V, V68M

Changes are numbered by the printed parent chain. Names and notes keep the numbering of the source. Each block holds one binder with its values, some of them ahead of it.
